# Measurements from PubChem BioAssay AID624417 (National Center for Advancing Translational Sciences (NCATS), 2012).
# About 6,400 (1.6%) of roughly 410,000 compounds were called active. Inconclusive means that the source gave no clear call. Such entries were picked first, then a sample of the others. Calls follow the shape of the dose curve; as a rule, active = well fitted inhibition curve with a large enough effect; inconclusive = small, poorly fitted or top-dose-only effect; inactive = no such curve, though single readings can be large or run the other way. Potencies of inconclusive entries are left out as doubtful fits.
# Target: Glucagon-like peptide 1 receptor (Homo sapiens) (UniProt P43220)
# UniProt P43220, sequence (P43220 whole entry, looked up): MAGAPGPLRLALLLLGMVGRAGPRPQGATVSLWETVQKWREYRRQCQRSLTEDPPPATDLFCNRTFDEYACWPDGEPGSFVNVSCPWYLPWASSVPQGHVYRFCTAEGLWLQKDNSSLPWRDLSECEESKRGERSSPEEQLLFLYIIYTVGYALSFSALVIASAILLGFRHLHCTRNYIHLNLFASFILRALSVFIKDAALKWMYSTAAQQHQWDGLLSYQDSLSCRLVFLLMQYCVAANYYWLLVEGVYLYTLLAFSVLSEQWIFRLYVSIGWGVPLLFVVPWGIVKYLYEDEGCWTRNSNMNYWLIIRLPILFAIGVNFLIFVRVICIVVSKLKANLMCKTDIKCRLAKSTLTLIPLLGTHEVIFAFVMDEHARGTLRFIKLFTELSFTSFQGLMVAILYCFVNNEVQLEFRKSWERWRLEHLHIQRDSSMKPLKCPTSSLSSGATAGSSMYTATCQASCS
# Experiment: qHTS of GLP-1 Receptor Inverse Agonists (Inhibition Mode); also: nearly all actives have a fitted effect of over 55% in size
# Details: HEK293 GLP-1R CRE-luciferase, luminescence, 24 h, GLP-1R form is constitutively active; activity change, negative = inhibition: at 38.3 µM (top of the series) unless noted
# Summary of the method: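 Cells are plated, allowed 12 hours at 37 deg C, then treated with compounds for 24 hr before luciferase detection reagent is added and luminescence is read after 12 min at room temperature. The HEK293 line carries constitutively active GLP-1R with a cAMP-responsive reporter.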
# % is scaled to controls: 0 for no effect and ±100 for the full control effect; potency is read from the fitted curve at half-maximal effect; tags tell the direction and shape of the fitted curve.
Compound,Potency,"activity change, negative = inhibition"
Cn1c(=O)c(C#N)c(-c2ccc(F)cc2)c2cc(C(=O)c3cc(Cl)cc(Cl)c3O)cnc21,"inconclusive [inhibitor, partial curve, poor fit]",
Cc1cccc(C)c1OCC(=O)N(Cc1ccco1)Cc1ccco1,"inconclusive [inhibitor, single point]",
CCOC(=O)C1CCN(CCC(=O)Nc2ccc(Br)cc2)CC1,"inconclusive [inhibitor, partial curve, poor fit]",
CCOC(=O)N1CCN(C(=O)CSc2nc(CC)nc3c2c(=O)n(C)c(=O)n3C)CC1,"inconclusive [inhibitor, full curve, poor fit]",
CCC(C)c1ccc(OCCN2CCCC2)cc1 (centres undefined),"inconclusive [inhibitor, partial curve, poor fit]",
CCn1cc(C(=O)N2CCN(c3cccc(Cl)c3)CC2)c(=O)c2cc(S(=O)(=O)N3CCC(C)CC3)ccc21,"inconclusive [inhibitor, partial curve, poor fit]",
O=C(NCCCN1CCN(c2cccc(Cl)c2)CC1)c1ccc2nc(Cc3ccccc3)oc2c1,"inconclusive [inhibitor, partial curve, poor fit]",
CCOC(=O)N1CCN(C(=O)Nc2ccc3oc(C)nc3c2)CC1,,inactive: 2.18%
CCCNC(=O)c1c(CSc2ccccc2)noc1C(=O)NCc1ccccc1,"inconclusive [inhibitor, partial curve]",
O=C(Oc1c(Cl)cc(Cl)c2cccnc12)c1cccs1,"inconclusive [inhibitor, full curve, poor fit]",
CCCc1nc(NCc2ccccn2)c2nnn(Cc3ccccc3F)c2n1,"inconclusive [inhibitor, full curve]",
COc1ccc(C(=O)CSc2nnc(CN3CCCCC3)n2-c2ccc(F)cc2)cc1,"inconclusive [inhibitor, partial curve, poor fit]",
NC(COCc1ccccc1)c1csc(NC(=O)Nc2cccc(C(F)(F)F)c2)n1 (centres undefined),"inconclusive [inhibitor, single point]",
Cn1nc(-c2ccccc2)c(CSc2ccccc2Cl)c1Cl,"inconclusive [inhibitor, single point]",
COc1cc2c(cc1OC)n(CC(=O)c1ccc(C)cc1C)c(=O)n1nc(CCn3nc(C)cc3C)nc21,"inconclusive [inhibitor, full curve, poor fit]",
C=CCSc1nnc(-c2cc(C(C)(C)C)nn2Cc2ccc(F)cc2)n1C,"inconclusive [inhibitor, single point]",
O=C(/C=C/c1ccc(F)cc1)NC(=S)NC1CCCCC1,"inconclusive [inhibitor, full curve]",
Cc1ccc(-c2n[nH]c(=S)n2/N=C/C=C\c2ccccc2[N+](=O)[O-])cc1,,inactive: -4.07%
O=C1CN(C(=O)COC(=O)c2ccccc2Br)c2ccccc2N1,,inactive: -9.71%
O=C(Cn1ncc2c([nH]c3ccccc32)c1=O)NCc1cccc(Cl)c1,,inactive: -25.4%

Compound,Potency,"activity change, negative = inhibition"
COc1ccc(NC(=O)C(C)n2c(C)c3cnn(-c4ccccc4)c(=O)c3c2C)cc1Cl (centres undefined),,inactive: -25.1%
COc1ccc(N=Nc2nc(-c3ccccc3)c(-c3ccccc3)[nH]2)cc1,"inconclusive [inhibitor, partial curve, poor fit]",
O=C(NCCCCc1ccccc1)Nc1cccc(F)c1,"inconclusive [inhibitor, partial curve, poor fit]",
CCOC(=O)c1cc(-c2ccc(F)cc2)n(CCC(=O)NCc2ccccc2OC)c1C,"inconclusive [inhibitor, partial curve, poor fit]",
COc1ccccc1C(=O)NNC(=O)c1cccc(Cl)c1,"inconclusive [inhibitor, single point]",
CC(C)(CN1CCN(C(c2ccccc2)c2ccccc2)CC1)NS(=O)(=O)c1ccccc1,"inconclusive [inhibitor, full curve, poor fit]",
CCCC[C@@H]1CNC(=S)N1CCc1cccc(F)c1,"inconclusive [inhibitor, single point]",
CC(=O)N1c2c(cc(Br)cc2S(=O)(=O)N2CCN(c3ccccc3F)CC2)CC1C (centres undefined),"inconclusive [inhibitor, partial curve, poor fit]",
CCN(CC)c1ccc(S(=O)(=O)N2CCCCC2)cc1NC(=O)CSCc1c(C)noc1C,"inconclusive [inhibitor, single point]",
O=C(NCCc1ccccc1)c1ccc(CSc2nc3ccncc3n2Cc2ccccc2F)cc1,"inconclusive [inhibitor, single point]",
CCOc1ccc(C(C)=O)cc1COC(=O)c1ccccc1C(=O)N(C)Cc1ccccc1,"inconclusive [inhibitor, single point]",
O=C(NCC(F)(F)F)c1ccc(S(=O)(=O)NCCc2ccc3c(c2)OCCO3)cc1,,inactive: -6.37%
O=C1c2ccccc2NC(c2ccc(-c3ccc(Br)cc3)o2)N1O (centres undefined),"inconclusive [inhibitor, partial curve, poor fit]",
CCN1CCN(CCCOc2ccccc2-c2ccccc2)CC1,"inconclusive [inhibitor, partial curve, poor fit]",
Cc1cccc(OCC(=O)N(Cc2ccc(C(C)C)cc2)Cc2ccco2)c1C,"inconclusive [inhibitor, single point]",
COc1ccc(-c2ccc(CN3C(C(C)C)C(=O)N(Cc4cn(CCC5OCCO5)nn4)CCS3(=O)=O)cc2)cc1 (centres undefined),"inconclusive [inhibitor, single point]",
CCOC1OC(=O)C(Cl)=C1Nc1ccc(C)cc1C (centres undefined),"inconclusive [inhibitor, partial curve]",
Cc1ccc2c(c1)C(=C(C#N)C#N)C(=O)N2CCN1CCOCC1,,inactive: -4.91%
CN(CC(=O)Nc1cccc(F)c1)C(=O)c1ccccc1Cc1ccccc1,active: 12.6 µM,
